# According to publication PMC4336329 (PLoS ONE, 2015):
# Out of some 310,000 compounds screened, about 2,200 (0.71%) showed an effect of 50% or more. The effect is printed as a negative number. This is one part of the list. Where a SMILES comes first, the peptide text is derived from it. The star is where a group is joined. Boc = CC(C)(C)OC(=O)*
# Molecular target: human ether-à-go-go-related gene (hERG) potassium channel (human, UniProt Q12809)
# Assay: primary screen, population patch clamp on CHO cells stably expressing hERG
# Sequence of human ether-à-go-go-related gene (hERG) potassium channel (Q12809 whole entry, looked up): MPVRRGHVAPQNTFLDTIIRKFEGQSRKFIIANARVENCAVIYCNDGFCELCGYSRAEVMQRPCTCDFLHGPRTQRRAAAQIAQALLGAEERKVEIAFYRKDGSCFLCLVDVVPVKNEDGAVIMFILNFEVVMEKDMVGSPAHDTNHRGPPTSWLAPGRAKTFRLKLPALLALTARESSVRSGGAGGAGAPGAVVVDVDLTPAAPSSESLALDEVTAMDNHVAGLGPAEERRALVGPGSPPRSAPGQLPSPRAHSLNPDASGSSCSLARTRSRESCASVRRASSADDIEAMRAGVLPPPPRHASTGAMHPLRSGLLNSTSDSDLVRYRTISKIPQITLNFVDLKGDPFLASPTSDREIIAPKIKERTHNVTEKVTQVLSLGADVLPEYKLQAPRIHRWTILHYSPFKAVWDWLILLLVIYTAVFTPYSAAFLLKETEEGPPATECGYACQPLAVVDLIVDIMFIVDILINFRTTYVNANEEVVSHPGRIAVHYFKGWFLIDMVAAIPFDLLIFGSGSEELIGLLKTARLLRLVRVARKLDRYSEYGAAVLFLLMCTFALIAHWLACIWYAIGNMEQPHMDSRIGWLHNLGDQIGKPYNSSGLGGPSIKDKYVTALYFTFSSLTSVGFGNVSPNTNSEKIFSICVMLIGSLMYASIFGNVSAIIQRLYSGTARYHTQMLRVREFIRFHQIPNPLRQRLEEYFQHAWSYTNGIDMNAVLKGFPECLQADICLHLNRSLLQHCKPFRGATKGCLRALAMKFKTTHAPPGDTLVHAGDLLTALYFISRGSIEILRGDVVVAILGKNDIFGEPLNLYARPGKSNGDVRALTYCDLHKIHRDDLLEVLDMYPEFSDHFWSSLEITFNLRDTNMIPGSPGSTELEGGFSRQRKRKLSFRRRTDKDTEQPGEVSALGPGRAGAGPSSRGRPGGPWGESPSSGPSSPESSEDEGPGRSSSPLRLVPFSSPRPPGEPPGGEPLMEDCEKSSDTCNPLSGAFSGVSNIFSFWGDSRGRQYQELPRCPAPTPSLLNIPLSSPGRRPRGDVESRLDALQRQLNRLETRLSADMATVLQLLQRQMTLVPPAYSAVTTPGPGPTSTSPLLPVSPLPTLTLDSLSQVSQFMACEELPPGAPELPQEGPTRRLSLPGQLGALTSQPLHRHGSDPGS
row,SMILES,"hERG current change (%, negative = inhibition) at 1uM"
1,CCN(CC(=O)NC1CC1)S(=O)(=O)c1ccc(OC)cc1,17.1%
2,COc1ccc(S(=O)(=O)n2cnc(C)c2)cc1,17.8%
3,CC12CCC(C(=O)NCC3CCCO3)(OC1=O)C2(C)C (stereo not drawn),13%
4,CC(C(=O)NCCN1C(=O)S/C(=C\c2cccs2)C1=O)N1C(=O)c2ccccc2C1=O (stereo not drawn),-7.59%
5,CC1(C)CCc2c([nH]c3ccccc3c2=O)O1,14.1%
6,Cn1nc([N+](=O)[O-])nc1Oc1ccccc1F,5.86%
7,COC(=O)[C@@H]1CCCN1C(=O)[C@@H](NC(=O)OC(C)(C)C)C(C)C (Boc-Val-Pro-OMe),12.9%
8,O=S(=O)(c1ccc(F)cc1)N1CCc2ccccc21,-0.784%
9,O=[N+]([O-])c1ccc(S(=O)(=O)N/N=C/c2ccc3c(c2)OCO3)cc1,4.85%
10,CCOC(=O)c1c(NC(=O)Cn2nnc(-c3ccc(Cl)cc3)n2)sc(CC)c1C,16.2%
11,COc1ccccc1N/C=C/c1onc(C)c1[N+](=O)[O-],12.4%
12,CCN(C(=O)c1ccc(NC(C)=O)cc1)c1ccccc1,-1.02%
13,COc1ccc(C2=NN(C(=O)c3ccccc3)C(c3ccc(OC)c(OC)c3)C2)c(OC(C)=O)c1 (stereo not drawn),25.9%
14,CCOC(=O)N1CCC(N2C(=O)c3ccc(C(=O)Nc4ccc(OC)cc4)cc3C2=O)CC1,14.1%
15,N/C(=N\OC(=O)Cc1ccccc1[N+](=O)[O-])c1ccccn1,5.59%
16,CCN(CC)C(=O)c1cn(CCC#N)nc1-c1ccc2c(c1)OCCO2,15.2%
17,COc1cccc(C=Nc2cc(C)cc(C)c2)c1O,8.78%
18,O=C(CN1C(=O)S/C(=C\c2cc(Cl)c(O)c(Cl)c2)C1=O)Nc1ccccc1,17.8%
19,COc1ccc(CCNC(=O)c2cc(C)oc2C)cc1,10.3%
20,COc1cc(-c2nc(-c3ccccn3)no2)cc(OC)c1OC,6.95%
21,CN(C)c1ccc(-c2ccc([C@H]3[C@@H]4C=CCC[C@@]4(C)C(=O)N3Cc3ccccc3)c(F)c2)cc1,11.4%
22,COc1cc(NC(=O)C2CC(=O)N(CCc3ccc(F)cc3)C2)cc(OC)c1OC (stereo not drawn),12.1%
23,CCOC(=O)c1ccc(S(=O)(=O)NNC(=O)COc2ccc(C)cc2)cc1,19.2%
24,Cc1ccc(-c2csc(N(CCO)CCCn3c(C(F)(F)F)nc4cc(C(F)(F)F)ccc43)n2)cc1,8.62%
